From PubChem BioAssay AID1240 (Sanford-Burnham Center for Chemical Genomics, 2008) come the findings set out here.

Molecules are shown by their SMILES. About 800 (1.6%) of roughly 50,000 compounds showed an effect of 50% or more. This is one part of the list.

The target of the test is Bcl-2-like protein 10 (Homo sapiens) (UniProt Q9HD36). The test can be described thus: TR3 peptide-Bcl-B binding displacers, biochemical primary FP assay, phenotype converters (AID 1240).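 Note: 0% = Bcl-B with tracer peptide and DMSO and 100% = tracer peptide lacking Bcl-B.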 As to conditions: GST-Bcl-B / FITC-TR3 peptide fluorescence polarization; stronger effect = higher value; compound at 3.75 mg/L.
UniProt Q9HD36, sequence (Q9HD36 whole entry, looked up): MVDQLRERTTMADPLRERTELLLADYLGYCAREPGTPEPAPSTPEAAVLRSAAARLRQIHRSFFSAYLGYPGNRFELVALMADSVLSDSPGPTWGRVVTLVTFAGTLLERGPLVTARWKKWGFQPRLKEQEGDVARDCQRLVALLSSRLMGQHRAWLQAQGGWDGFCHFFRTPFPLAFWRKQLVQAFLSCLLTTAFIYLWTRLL
For the compound `O=C(Cc1ccccc1)Nc1ccc2c(c1)OCCO2`, the displacement was determined as 15.3%.
`CCOC(=O)C1=C(O)CSC1=Nc1ccc(OC)cc1`: the displacement is -13%.
As to `COc1ccc(CC(=O)Nc2ccc(Br)cc2F)cc1OC`, the displacement is -1.7%.
Turning to `COc1ccc(/C(C)=N\OCc2nc3c4c5c(sc4ncn3n2)C(C)(C)NC(C)(C)C5)cc1OC`, the displacement was -9.8%.
Then `Cc1ccc(C(O)c2nc3ccccc3n2C(C)C)cc1` (stereo not drawn), with -9.1%; and `COc1ccc(NC(=O)C(C)c2ccc(CC(C)C)cc2)cc1` (stereo not drawn), with 14.9%.
The figure for `COC(=O)c1ccccc1NC(=O)c1cc(=O)[nH]c2ccccc12` is 8.9%.
Then `COc1ccccc1OCc1ccc(C(=O)O)cc1`, with -5.2%; and `C/C(=N/NC(=O)c1cccc(Br)c1)c1ccccc1O`, with -7.3%.
With `O=C(Oc1cc(-c2ccccc2)c2oc(=O)sc2c1)c1ccccc1`, the displacement was found to be 1.6%.
For the compound `CCOC(=O)c1c(NC(=O)CCCOc2ccc(Cl)cc2Cl)sc(C)c1C`, the displacement was 8.1%.
The figure for `O=C(Oc1ccc(-c2ccccc2)cc1)c1ccccc1[N+](=O)[O-]` is 3%; for `C/C(=N\N=C1\NC(=O)C(CC(=O)Nc2cccc(C)c2C)S1)c1ccccc1` (stereo not drawn) it is 8.6%.
Then `O=C(Nc1ccccc1C(=O)Nc1ccccc1I)c1ccccc1`, with 11.1%.
The figure for `CCOc1ccc(NC(=S)NC(NC(=O)c2ccc(Br)cc2)C(Cl)(Cl)Cl)cc1` (stereo not drawn) is -5.8%; for `CCOC(=O)C1=C(O)/C(=C/c2cccs2)SC1=Nc1cccc(Cl)c1` it is -3.3%.
On to `Cc1nc(NNC(=O)c2ccc(Cl)cc2)cc(-c2ccccc2)n1`, for which the displacement is -7.4%.
The figure for `CN(c1ccc(C(=O)Nc2cccnc2)cc1)S(=O)(=O)c1ccccc1` is 3.9%.
The figure for `O=C(Nc1cccc2nsnc12)c1ccc(Cl)cc1Cl` is 0.8%; for `O=C(NC1CCSC1=O)c1ccc(-c2ccccc2)cc1` (stereo not drawn) it is -7%; for `Cc1cccc(N2C(=O)NC(=O)/C(=C/c3cccn3-c3ccc([N+](=O)[O-])cc3)C2=O)c1` it is -12.8%.
Then `C=CCNC(=O)CN(c1ccccc1CC)S(C)(=O)=O`, with 0.6%.
Consider `O=C(Nc1cccc(-c2nc3ccccc3s2)c1)c1ccc(-c2ccc([N+](=O)[O-])cc2)o1`, for which the displacement stood at 70%.
As for `COc1ccc(C(=O)N/C(=C\c2ccc(-c3cccc([N+](=O)[O-])c3)o2)C(=O)NCc2ccncc2)cc1`, the displacement came out at 9.9%.
Then `COc1ccc(C(NC(C)=O)c2ccc3cccnc3c2O)c(OC)c1` (stereo not drawn), with -15.3%; and `Cc1cccc(C=Nc2ccccc2O)c1O`, with 11.1%; and `Cc1ccc(OCC(=O)N2CCN(c3ccccn3)CC2)cc1`, with 4.5%.
Consider `COc1ccc(C2CC(C(F)(F)F)n3nc(C(=O)Nc4c(C)n(C)n(-c5ccccc5)c4=O)c(Cl)c3N2)cc1` (stereo not drawn), for which the displacement is 11%.
The figure for `CCOC(=O)C1=C(O)/C(=C/c2ccc(O)cc2)SC1=Nc1ccccc1` is -10%; for `O=C(c1ccccc1)N1CCN(Cc2c[nH]c3ccccc23)CC1` it is -4.1%; for `CCCSc1nc2sc3c(c2c(=O)[nH]1)CCc1ccccc1-3` it is -9.7%.
Then `CCn1c2ccccc2c2cc(NC(=O)c3cccc([N+](=O)[O-])c3C)ccc21`, with -8.3%; and `Cc1sc(NC(=O)c2ccc(Cl)cc2)c(C(=O)OC(C)C)c1C`, with 4.2%; and `CC(=O)Nc1ccc(Oc2ccccc2)cc1`, with 0.5%.
In the case of `Cc1ccc([N+](=O)[O-])cc1N/C=C/C(=O)c1ccccc1`, the displacement was 4.4%.
`O=C(CCN1CCOCC1)Nc1c(-c2ccccc2)c2cc(Br)ccc2[nH]c1=O`: the displacement is -4.1%.
The figure for `COc1ccc(C2CC(=O)C3=C(C2)Nc2ccccc2NC3c2ccccc2C)cc1` (stereo not drawn) is -10%; for `C=CCc1ccccc1OCCOc1c(I)cc(/C=N/n2cnnc2)cc1OC` it is 1.2%.
As to `O=C1CCCC2=C1C(c1cccs1)Nc1ccc(C(=O)c3ccccc3)cc1N2` (stereo not drawn), the displacement turned out to be 31.7%.
On to `Cc1ccc(NC(=S)NC(=O)c2ccc(F)cc2)cc1Br`, for which the displacement is 2.4%.
The figure for `CC(C)Oc1cccc(C(=O)N2CCCC2)c1` is -12.9%; for `CCCOC(=O)c1ccc(NC(=O)c2ccc(-c3cccc(Cl)c3)o2)cc1` it is -4.6%.
Regarding `C/C(=N\NS(C)(=O)=O)c1ccc(O)cc1O`, the displacement came to 7.2%.
Then `Cc1ccc(C)c(C(O)(c2ccccc2)c2cnc(C(C)C)n2C)c1` (stereo not drawn), with -1.4%.
The figure for `O=C(NN1C(=O)c2ccc(Oc3cccc([N+](=O)[O-])c3)cc2C1=O)c1ccco1` is -19.4%; for `Brc1ccccc1CN1CCN(Cc2ccccn2)CC1` it is -0.7%.
Take `O=C(CCc1ccccc1)Nc1c[nH]c(=O)[nH]c1=O`: the displacement stood at 3.9%.
Consider `CCCOC(=O)c1ccc(NC(=O)COc2ccc(Cl)cc2C)cc1`, for which the displacement came out at 0%.
Then `CCOC(=O)C(NC(=O)c1ccccc1)=C1C=C(C)OC(C)=C1`, with 5.6%.
As for `CC(C)C(NC(=O)/C=C/c1ccc2c(c1)OCO2)C(C)C`, the displacement turned out to be 12.9%.
Then `CCCNC(=O)c1c(NC(=O)c2ccccc2Cl)sc2c1CCC(C)C2` (stereo not drawn), with -3.3%; and `NNC(=O)C(NC(=O)c1ccc([N+](=O)[O-])cc1)C12CC3CC(CC(C3)C1)C2` (stereo not drawn), with 33.9%.
The figure for `CC1=C(C(=O)OC(C)C)C(c2ccc(F)c(Br)c2)CC(=O)N1` (stereo not drawn) is -0.5%; for `CCOc1cccc(C(=O)Nc2cc(C(F)(F)F)cc(C(F)(F)F)c2)c1` it is -4.2%; for `Cc1cc(I)ccc1S(=O)(=O)NCCCN1CCOCC1` it is -3.3%.
Then `Cn1c(=O)c(C(=O)NC2CCCC2)c(O)c2ccccc21`, with -16.3%.
Consider `O=C1/C(=C/C=C/c2ccccc2)SC(=S)N1c1cccc(C(F)(F)F)c1`, for which the displacement was 23.8%.
The figure for `Cn1c(/C=N/c2nc3ccccc3[nH]2)nc2ccccc21` is 7.1%; for `O=Cc1ccc(/C=C2/SC(=S)N(Cc3ccccc3)C2=O)cc1` it is 10.5%; for `CCCCOC(C)n1ccc(=O)[nH]c1=O` (stereo not drawn) it is 6.5%.
Consider `COc1ccc(C(=O)Nc2ccc(I)cc2Cl)cc1`, for which the displacement amounted to 7.8%.
As for `COc1ccc(NC(=O)c2c(OC)cccc2OC)c(OC)c1`, the displacement was -7.3%.
Then `CCOc1cc(/C=C2/SC(=S)N(c3ccccc3)C2=O)ccc1OS(=O)(=O)c1ccccc1`, with 8.7%; and `CCOC(=O)c1ccc(-c2ccc(/C=C3/C(C)=C(C#N)c4nc(N)c(C#N)c(C)c43)o2)cc1`, with 4.7%.
With `Cc1c(Cl)cccc1N1C(=O)CC(Sc2nc3ccccc3s2)C1=O` (stereo not drawn), the displacement is -14%.
The figure for `O=C(NC(NC(=O)C(c1ccccc1)c1ccccc1)c1cccc([N+](=O)[O-])c1)C(c1ccccc1)c1ccccc1` is 0.3%; for `CC(=O)c1cccc(NC(=O)/C(=C\c2cccs2)NC(=O)c2cccs2)c1` it is -17.5%; for `CCN(CC)/C(=N/OCc1ccc(Cl)cc1Cl)c1nonc1N` it is 10.1%.
Take `CCOC(=O)N/N=C(\C)Cc1ccc2c(c1)OCO2`: the displacement was -4.1%.
Regarding `CC(NC(=O)C(C)N1C(=O)c2ccccc2C1=O)c1ccccc1` (stereo not drawn), the displacement came out at 2.9%.
With `O=C(Nc1ccc(Cl)cc1)N1CCN(Cc2ccc3c(c2)OCO3)CC1`, the displacement is -21.9%.
`COc1ccc(NC(=O)N2CCN(c3ccc(F)cc3)CC2)cc1`: the displacement amounted to 9.4%.
Then `CCN1C(=O)/C(=C2\SC(=S)N(c3ccccc3)C2=O)c2ccccc21`, with -5.1%; and `CC(C)C(NC(=O)/C(=C\c1ccc2c(c1)OCO2)NC(=O)c1ccccc1)C(=O)O` (stereo not drawn), with 4.4%; and `CCC1=NN2C(=N)/C(=C/c3ccc(OCc4ccccc4Cl)c(OC)c3)C(=O)N=C2S1`, with 0.8%.
Then `CCOC(=O)C(CCOc1ccc(Cl)cc1C)C(=O)OCC`, with 9.2%; and `Cc1ccc(S(=O)(=O)N(CC(=O)NC(C)c2ccccc2)Cc2ccccc2)cc1` (stereo not drawn), with 4.5%; and `COc1cc(C=O)ccc1OCCN1CCOCC1`, with -3.1%.
Then `O=C(c1ccc(F)cc1)c1ccc(N2CCCCCC2)cc1`, with 0.6%; and `COc1ccccc1C(=O)Nc1ccc(I)cc1Cl`, with 10%.
For the compound `CCc1ccccc1N1C(=O)CC(Sc2nc(C)cc(C)n2)C1=O` (stereo not drawn), the displacement came to 10.8%.
As for `C/C(=N\N=C1\NC(=O)C(CC(=O)Nc2ccc(F)cc2)S1)C(C)(C)C` (stereo not drawn), the displacement was -10.8%.
As for `CC(C)C(=O)Oc1ccc2c(=O)c(Oc3ccc(C(C)(C)C)cc3)coc2c1`, the displacement is -6.4%.
The figure for `CCC(=O)c1ccc(N2CCN(CCC#N)CC2)c(F)c1` is -6.6%; for `COc1ccc2c(c1)CC/C2=N/OC(=O)c1cc(OC)c(OC)c(OC)c1` it is -12.3%; for `CCOC(=O)c1c(NC(=O)C2CC=CCC2C(=O)O)sc2c1CCC(C)C2` (stereo not drawn) it is -7.5%.
Then `O=C1N=C(N2CCOCC2)S/C1=C\c1cccnc1`, with 26.4%; and `CN(C)C=Nc1ccc2nc3c(cc2c1)[nH]c1ccccc13`, with 21.6%; and `COc1cc(/C=C2/C(=O)NC(=O)N(c3cccc(C)c3)C2=O)ccc1OCCOc1ccc([N+](=O)[O-])cc1`, with 23.2%.
The figure for `O=C(COc1cccc2ccccc12)Nc1ccncc1` is 11.9%; for `O=[n+]1cc(-c2ccc(Br)cc2)n([O-])c2c1CCC2` it is 12.1%.
For the compound `N#Cc1cnn(-c2ccccc2)c1NC(=O)c1ccccc1F`, the displacement is -6.8%.
The figure for `Cc1cc(C)cc(Nc2cc(=O)n(C)c(=O)n2C)c1` is 14.2%; for `COc1ccc(-n2nc3cc(C)c(NC(=O)c4cccc(Br)c4)cc3n2)cc1` it is 9.8%; for `Cc1ccc(-n2nc3cc(C)c(NC(=O)c4cccs4)cc3n2)cc1` it is 1.8%.
Then `COc1cc(/C=C2/SC(=S)N(C)C2=O)ccc1OCc1ccc(Br)cc1`, with 88.9%; and `CCOC(=O)/C=C(/C)Nc1c(C)n(C)n(-c2ccccc2)c1=O`, with 14.5%; and `CC1(C)CC(=O)C2=C(C1)Nc1ccccc1N(C(=O)c1ccccc1)C2c1ccc([N+](=O)[O-])o1` (stereo not drawn), with -0.2%.
Then `O=C(COc1ccccc1)N1CCCCC1`, with -1.6%; and `CC(=O)Nc1cccc(NC(=O)CC(c2ccccc2)c2ccccc2)c1`, with 3.9%.
On to `CN1C(=O)/C(=N\OC(=O)c2cccc(F)c2)c2ccccc21`, for which the displacement is -10.7%.
Then `O=C(COc1ccc(Cl)cc1Cl)Nc1cc(-c2ccc(F)cc2)[nH]n1`, with 13.6%.
The figure for `CC(C)(C)C1=NN(C(=O)c2ccc([N+](=O)[O-])cc2)C(O)(C(F)(F)F)C1` (stereo not drawn) is 11.1%; for `CC(=NC1CC1)c1c(C(F)(F)F)[nH]n(-c2nc3ccccc3s2)c1=O` it is -12.3%.
The figure for `COC(=O)c1ccc(N2C(=O)Cc3cc(OC)c(OC)cc3C2c2ccc(OC)cc2)cc1` (stereo not drawn) is -2.9%; for `COc1cc(OC)c(/C=N/Nc2ccccc2[N+](=O)[O-])cc1Br` it is -1.7%; for `COc1ccc(C(O)Cc2nc3ccccc3n2Cc2ccc(Cl)cc2)cc1` (stereo not drawn) it is 3.9%.
For `CC(C)CN1C(=O)/C(=C/c2ccc(O)cc2)SC1=S`, the displacement is -14.6%.
